The whole screen tested about 310,000 compounds, of which about 2,200 (0.71%) showed an effect of 50% or more. The effect is printed as a negative number. The list shows a part of the results.
Target: human ether-à-go-go-related gene (hERG) potassium channel (human, UniProt Q12809)
Assay: primary screen, population patch clamp on CHO cells stably expressing hERG

Sequence of human ether-à-go-go-related gene (hERG) potassium channel (Q12809 whole entry, looked up): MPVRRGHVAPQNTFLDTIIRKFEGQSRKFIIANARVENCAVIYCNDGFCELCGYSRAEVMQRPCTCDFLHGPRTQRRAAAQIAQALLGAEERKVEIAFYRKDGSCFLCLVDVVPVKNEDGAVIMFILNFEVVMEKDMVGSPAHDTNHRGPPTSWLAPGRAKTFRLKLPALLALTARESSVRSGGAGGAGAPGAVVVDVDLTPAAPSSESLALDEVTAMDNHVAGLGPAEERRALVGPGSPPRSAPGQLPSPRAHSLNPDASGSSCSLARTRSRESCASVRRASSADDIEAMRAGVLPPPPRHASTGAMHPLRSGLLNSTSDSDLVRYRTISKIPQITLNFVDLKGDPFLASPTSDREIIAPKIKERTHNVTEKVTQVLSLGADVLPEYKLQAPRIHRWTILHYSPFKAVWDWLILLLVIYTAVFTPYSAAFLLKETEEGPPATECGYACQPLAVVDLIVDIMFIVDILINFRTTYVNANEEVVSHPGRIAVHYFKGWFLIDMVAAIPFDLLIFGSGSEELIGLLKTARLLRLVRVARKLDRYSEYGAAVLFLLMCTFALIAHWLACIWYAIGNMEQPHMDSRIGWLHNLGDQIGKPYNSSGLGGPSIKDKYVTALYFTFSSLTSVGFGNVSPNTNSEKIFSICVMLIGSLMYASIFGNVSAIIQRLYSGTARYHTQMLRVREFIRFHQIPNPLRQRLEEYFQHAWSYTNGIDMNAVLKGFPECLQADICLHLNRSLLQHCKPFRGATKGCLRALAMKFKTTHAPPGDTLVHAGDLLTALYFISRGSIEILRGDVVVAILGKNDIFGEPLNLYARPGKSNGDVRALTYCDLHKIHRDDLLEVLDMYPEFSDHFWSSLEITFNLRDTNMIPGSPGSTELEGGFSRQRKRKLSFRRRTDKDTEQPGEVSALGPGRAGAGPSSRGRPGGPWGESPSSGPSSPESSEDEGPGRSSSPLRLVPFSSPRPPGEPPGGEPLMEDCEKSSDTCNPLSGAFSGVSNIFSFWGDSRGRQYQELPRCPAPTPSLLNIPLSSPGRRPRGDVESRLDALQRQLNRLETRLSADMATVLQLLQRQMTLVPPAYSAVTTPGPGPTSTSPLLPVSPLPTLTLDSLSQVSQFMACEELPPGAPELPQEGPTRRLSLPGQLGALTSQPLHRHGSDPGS

SMILES | hERG current change (%, negative = inhibition) at 1uM [%]
Cc1cccc(N=Nc2ccc(N(C)C)cc2)c1 | 7.51
Cn1c2c(c(=O)n(C)c1=O)C(NC(=O)c1cccs1)(C(F)(F)F)C(=O)N2 (centres unmarked) | 7.42
COc1ccc(NC(=O)CSc2nnc(CCC(=O)O)c(=O)n2N)cc1 | 14.6
Cc1ccccc1Cn1c(Cc2ccccc2)nc2ccccc21 | -3.83
CCC(C)NC(=O)c1ccc(CS(=O)(=O)Cc2ccc(Cl)cc2)o1 (centres unmarked) | 2.09
C=C1CCc2c([nH]c3ccc(OCC(C)C)cc23)C1=O | 9.92
CN(C)CCN(C(=O)c1ccc(S(=O)(=O)N(C)c2ccccc2)cc1)c1nc2ccc(Cl)cc2s1.Cl | 6.16
COc1cc2c(cc1OC)C(c1ccccc1)N(S(C)(=O)=O)CC2 (centres unmarked) | 7.05
Cc1ccc(C(O)(C(=O)NNc2ccc3ccccc3n2)c2ccc(C)cc2)cc1.Cl | 9.73
O=[N+]([O-])c1cccc(-n2nncc2-c2ccccc2)c1 | 4.38
CC(=O)COC(=O)c1cc(-c2ccc(C)cc2)nc2ccccc12 | -0.463
CCOC(=O)CSc1nc2ccccc2n1CC(=O)N1CCN(c2ccccc2)CC1 | -18.7
CCN(CC)CCNC(=O)c1cc(Cl)c(N)cc1OC.Cl | 12.8
COc1ccc(OC)c(NC(=O)COC(=O)c2cc3c(s2)CCC3)c1 | 10.2
O=C1NC2(CCCCCC2)C(=O)N1Cc1cccc([N+](=O)[O-])c1 | 10.1
COc1cccc(C(=O)NC(=S)Nc2ccc3c4c(cccc24)CC3)c1 | 8.61
CC1=C(C(=O)OCC2CCCO2)C(c2cccc(O)c2)NC(=O)N1 (centres unmarked) | 10.9
O=C(CCCN1C(=O)NC2(CCCC2)C1=O)N1CCN(S(=O)(=O)c2ccccc2)CC1 | 11.3
Cc1ccc(-c2nnn(CC(=O)N(c3ccccc3F)C(C(=O)NC3CCCC3)c3ccncc3)n2)o1 (centres unmarked) | 14.5
Cc1csc(NC(=O)CSCC(=O)O)c1-c1nc2ccccc2s1 | 7.17
O/N=C/c1ccc2cccc(OCc3ccccc3)c2n1 | 11.9
COc1cccc(/C=N/NC(=O)C(c2ccncc2)N2CCOCC2)c1 (centres unmarked) | 11.2
Cc1ccc(-n2nc3c(=O)n(CC(=O)NCCC4=CCCCC4)nc(C)c3c2C)cc1 | 8.77
CCOC(=O)N1CCN(C(=O)c2ccccc2NC(=O)c2ccc(Br)cc2)CC1 | -3.07
O=C(c1cn(-c2ccccc2)nc1-c1cccs1)N(CCO)Cc1ccccc1 | 8.41
CCC(=O)c1ccc(OCC(O)CNCc2ccc(F)cc2)cc1 (centres unmarked) | -12.8
CCN1C(=O)CSC1=Nc1cccc(C(=O)O)c1 | 15.2

SMILES | hERG current change (%, negative = inhibition) at 1uM [%]
COc1ccc(NC(=O)CSc2nc(N)c3cc4c(nc3n2)CCCC4)c(OC)c1 | -1.87
COc1ccc(S(=O)(=O)N(Cc2ccccc2)Cc2nc3ccccc3c(=O)[nH]2)cc1 | 8.77
CCOC(=O)CSc1nnc(-c2ccc(Cl)cc2Cl)o1 | -2.76
C=CC[C@H]1Cc2c(cccc2[N+](=O)[O-])[C@H](CC=C)N1 | 6.88
O=C(O)c1ccc(S(=O)(=O)c2ccc([N+](=O)[O-])cc2[N+](=O)[O-])cc1 | 6.1
COc1cccc(CN(C)CC(=O)NNC(=O)c2ccc(Cl)cc2)c1 | 0.278
CCOC(=O)N1CCC(N2Cc3cccc(C(=O)Nc4ccc(OCC)cc4)c3C2=O)CC1 | 13.3
O=C(CN1C(=O)NC2(CCCC2)C1=O)Nc1ccc(S(=O)(=O)N2CCOCC2)cc1 | 10.2
CCOc1ccc2oc(-c3ccccc3)c(C(=O)N3CCN(C)CC3)c2c1 | 9.85
O=C(CN1CCC(n2nnc3ccccc32)CC1)Nc1ccc2c(c1)CCC2 | -1.51
Cc1cc(C)c(S(=O)(=O)Nc2ccc3c(c2)CCC3)c(C)c1 | 4.55
CC(=O)c1c(N2CCC(C(N)=O)CC2)nc(=S)n(-c2ccccc2)c1C | -2.8
Cc1nn(-c2ccccn2)c2nc(-c3cccs3)cc(C(=O)NCc3ccco3)c12 | -13.2
O=C(CN1C(=O)S/C(=C\c2ccccc2Cl)C1=O)NCCCn1ccnc1 | 0.231
CC(=O)c1ccc(-c2ccc(Cn3c(C)nc4cc(N)c(C)nc43)cc2)cc1 | 13
N#C/C(=C/c1cccs1)c1ccccn1 | 18.6
O=C(COC(=O)C12CC3CC(CC(Cl)(C3)C1)C2)Nc1ccc2[nH]c(=O)[nH]c2c1 | 11.1
OCCCn1c(C2CCCN2c2nc(-c3ccc(F)cc3)cs2)nc2cc(Cl)c(Cl)cc21 (centres unmarked) | 11
O=C(CCC(=O)c1cccs1)OCc1ccc([N+](=O)[O-])cc1 | 2.72
C#CCOCCOCCOCCNc1nc(N2CCN(C(=O)[C@H](CCC(=O)O)n3cc(C(N)CC(C)C)nn3)CC2)nc(N2CCN(C(=O)[C@H](Cc3ccc(O)cc3)n3cc(C(N)CC(C)C)nn3)CC2)n1.Cl (some centres unmarked) | -6.98
CCn1cc(C(=O)NCCCN2CC(C)CC(C)C2)c(=O)c2cc(S(=O)(=O)N(C)C3CCCCC3)ccc21 (centres unmarked) | -91.4
S=C(NCCc1ccccc1)Nc1ccccc1 | 12.7
Cc1cc(-c2ccco2)n(CC(=O)NCc2ccccc2)n1 | 6.3
CCCc1nc2oc3c(=O)[nH]cnc3c2c2c1CCCC2 | -9.7
CCOC(=O)C(Cc1ccccc1)NC(=O)CCc1nnc2ccc(N3CCCC3)nn12 (centres unmarked) | 10.9
Cc1ccc(C(C)C)c(OCC(=O)NN=C(CCl)CCl)c1 | 3.28

Source: paper PMC4336329 (PLoS ONE, 2015)
